# From the supplement of paper PMC8728848
# The list shows a part of the results.
# B1: RBMC1 (Vibrio cholerae) (protein)
# chain: QQSQRVVTADNLMYLRSGFAIDAIGTTVNNLVGGPVQGTNGGVLRAPIALDQLQSVEVTSGLYNWGGYHIVAIKFTMKDGSSVLLGSTHYASNKKVETYTVPQGKRIKQINVWTGGWLVEGFQFVY
# Assays:
# Assay in all cases: glycan array binding signal (z-score within array); higher = stronger binding
# Details in all cases: glycan notation: IUPAC condensed, linker removed
# [1] = biological target: Fuc(a1-2)Gal
# Method in brief: (§1)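 Columns mapping to the same glycan were averaged after glycan names were converted to IUPAC-condensed notation. The data come from 3228 arrays in the Consortium for Functional Glycomics database, limited to those with an available protein sequence. Binding is reported as a within-array Z-score averaged across arrays of one protein sequence and across linkers.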
# [2] = biological target: Fuc(a1-2)Gal(b1-3)GalNAc
# Method in brief: as §1
# [3] = biological target: Fuc(a1-2)Gal(b1-3)GalNAc(a1-3)[Fuc(a1-2)]Gal(b1-4)Glc
# Method in brief: as §1
# [4] = biological target: Fuc(a1-2)Gal(b1-3)GalNAc(a1-3)[Fuc(a1-2)]Gal(b1-4)GlcNAc
# Method in brief: as §1
# [5] = biological target: Fuc(a1-2)Gal(b1-3)GalNAc(b1-3)Gal
# Method in brief: as §1
# [6] = biological target: Fuc(a1-2)Gal(b1-3)GalNAc(b1-3)Gal(a1-4)Gal(b1-4)Glc
# Method in brief: as §1
# [7] = biological target: Fuc(a1-2)Gal(b1-3)GalNAc(b1-4)[Neu5Ac(a2-3)]Gal(b1-4)Glc
# Method in brief: as §1
# [8] = biological target: Fuc(a1-2)Gal(b1-3)GlcNAc
# Method in brief: as §1
# [9] = biological target: Fuc(a1-2)Gal(b1-3)GlcNAc(b1-2)Man(a1-3)[Fuc(a1-2)Gal(b1-3)GlcNAc(b1-2)Man(a1-6)]Man(b1-4)GlcNAc(b1-4)GlcNAc
# Method in brief: as §1
# [10] = biological target: Fuc(a1-2)Gal(b1-3)GlcNAc(b1-2)Man(a1-3)[Fuc(a1-2)Gal(b1-3)GlcNAc(b1-2)Man(a1-6)]Man(b1-4)GlcNAc(b1-4)[Fuc(a1-6)]GlcNAc
# Method in brief: as §1
# [11] = biological target: Fuc(a1-2)Gal(b1-3)GlcNAc(b1-3)Gal(b1-4)Glc
# Method in brief: as §1
# [12] = biological target: Fuc(a1-2)Gal(b1-3)GlcNAc(b1-3)GalNAc
# Method in brief: as §1
# [13] = biological target: Fuc(a1-2)Gal(b1-3)GlcNAc(b1-3)[Fuc(a1-2)Gal(b1-3)GlcNAc(b1-6)]GalNAc
# Method in brief: as §1
# [14] = biological target: Fuc(a1-2)Gal(b1-3)GlcNAc(b1-3)[Gal(b1-4)GlcNAc(b1-6)]Gal(b1-4)Glc
# Method in brief: as §1
# [15] = biological target: Fuc(a1-2)Gal(b1-3)GlcNAc(b1-3)[Neu5Ac(a2-6)Gal(b1-4)GlcNAc(b1-6)]Gal(b1-4)Glc
# Method in brief: as §1
# [16] = biological target: Fuc(a1-2)Gal(b1-3)GlcNAc6S
# Method in brief: as §1
# [17] = biological target: Fuc(a1-2)Gal(b1-3)[Fuc(a1-4)]GlcNAc
# Method in brief: as §1
# [18] = biological target: Fuc(a1-2)Gal(b1-3)[Fuc(a1-4)]GlcNAc(b1-2)Man(a1-3)[Fuc(a1-2)Gal(b1-3)[Fuc(a1-4)]GlcNAc(b1-2)Man(a1-3)]Man(b1-4)GlcNAc(b1-4)GlcNAc
# Method in brief: as §1
# [19] = biological target: Fuc(a1-2)Gal(b1-3)[Fuc(a1-4)]GlcNAc(b1-2)Man(a1-3)[Fuc(a1-2)Gal(b1-3)[Fuc(a1-4)]GlcNAc(b1-2)Man(a1-6)]Man(b1-4)GlcNAc(b1-4)[Fuc(a1-6)]GlcNAc(b1-4)[Fuc(a1-6)]GlcNAc
# Method in brief: as §1
# [20] = biological target: Fuc(a1-2)Gal(b1-3)[Fuc(a1-4)]GlcNAc(b1-3)[Fuc(a1-3)[Gal(b1-4)]GlcNAc(b1-6)]Gal(b1-4)Glc
# Method in brief: as §1
# [21] = biological target: Fuc(a1-2)Gal(b1-3)[Fuc(a1-4)]GlcNAc(b1-3)[Gal(b1-4)GlcNAc(b1-6)]Gal(b1-4)Glc
# Method in brief: as §1
# [22] = biological target: Fuc(a1-2)Gal(b1-4)Glc
# Method in brief: as §1
# [23] = biological target: Fuc(a1-2)Gal(b1-4)Glc6S
# Method in brief: as §1
# [24] = biological target: Fuc(a1-2)Gal(b1-4)GlcNAc
# Method in brief: as §1
# [25] = biological target: Fuc(a1-2)Gal(b1-4)GlcNAc(b1-2)Man
# Method in brief: as §1
# [26] = biological target: Fuc(a1-2)Gal(b1-4)GlcNAc(b1-2)Man(a1-3)[Fuc(a1-2)Gal(b1-4)GlcNAc(b1-2)Man(a1-6)]Man(b1-4)GlcNAc(b1-4)GlcNAc
# Method in brief: as §1
# [27] = biological target: Fuc(a1-2)Gal(b1-4)GlcNAc(b1-2)Man(a1-3)[Fuc(a1-2)Gal(b1-4)GlcNAc(b1-2)Man(a1-6)]Man(b1-4)GlcNAc(b1-4)[Fuc(a1-6)]GlcNAc
# Method in brief: as §1
# [28] = biological target: Fuc(a1-2)Gal(b1-4)GlcNAc(b1-2)[Fuc(a1-2)Gal(b1-4)GlcNAc(b1-4)]Man(a1-3)[Fuc(a1-2)Gal(b1-4)GlcNAc(b1-2)Man(a1-6)]Man(b1-4)GlcNAc(b1-4)GlcNAc
# Method in brief: as §1
# [29] = biological target: Fuc(a1-2)Gal(b1-4)GlcNAc(b1-3)Gal(b1-4)GlcNAc
# Method in brief: as §1
# [30] = biological target: Fuc(a1-2)Gal(b1-4)GlcNAc(b1-3)Gal(b1-4)GlcNAc(b1-2)Man(a1-3)[Fuc(a1-2)Gal(b1-4)GlcNAc(b1-3)Gal(b1-4)GlcNAc(b1-2)Man(a1-6)]Man(b1-4)GlcNAc(b1-4)GlcNAc
# Method in brief: as §1
binder,measurement,setting,value
B1,glycan array binding signal (z-score),[1],-0.366
same,glycan array binding signal (z-score),[2],-0.159
same,glycan array binding signal (z-score),[3],-0.383
same,glycan array binding signal (z-score),[4],-0.356
same,glycan array binding signal (z-score),[5],-0.148
same,glycan array binding signal (z-score),[6],-0.293
same,glycan array binding signal (z-score),[7],-0.393
same,glycan array binding signal (z-score),[8],-0.273
same,glycan array binding signal (z-score),[9],1.37
same,glycan array binding signal (z-score),[10],-0.102
same,glycan array binding signal (z-score),[11],-0.346
same,glycan array binding signal (z-score),[12],-0.195
same,glycan array binding signal (z-score),[13],0.134
same,glycan array binding signal (z-score),[14],-0.206
same,glycan array binding signal (z-score),[15],-0.436
same,glycan array binding signal (z-score),[16],-0.359
same,glycan array binding signal (z-score),[17],-0.374
same,glycan array binding signal (z-score),[18],-0.195
same,glycan array binding signal (z-score),[19],-0.317
same,glycan array binding signal (z-score),[20],-0.178
same,glycan array binding signal (z-score),[21],-0.176
same,glycan array binding signal (z-score),[22],-0.346
same,glycan array binding signal (z-score),[23],-0.119
same,glycan array binding signal (z-score),[24],-0.362
same,glycan array binding signal (z-score),[25],-0.233
same,glycan array binding signal (z-score),[26],0.229
same,glycan array binding signal (z-score),[27],-0.042
same,glycan array binding signal (z-score),[28],-0.074
same,glycan array binding signal (z-score),[29],-0.313
same,glycan array binding signal (z-score),[30],2.16
